{"source": "PubChem BioAssay AID624202", "about": "(National Center for Advancing Translational Sciences (NCATS), 2012)", "note": "Screen size: about 380,000 compounds; about 4,000 (1.1%) were called active. The inconclusive results got no clear call from the source; some entries with a clear call stand among them for comparison. Calls come from the whole dose curve; as a rule, active = well fitted activation curve with a large enough effect; inconclusive = small, poorly fitted or top-dose-only effect; inactive = no such curve, though single readings can be large or run the other way. Where the call is inconclusive, the potency comes from a doubtful curve fit. Potency is the fitted concentration of half-maximal effect; tags give direction and shape of the fitted curve."}
{"assay": "qHTS Assay to Identify Small Molecule Activators of BRCA1 Expression; note: nearly all actives have a fitted effect of over 80% in size", "conditions": "MCF7-BRCA1-FFLuc reporter, luminescence, 48 h; activation: at 46.1 µM (top of the series), scaled: vehicle 0%, 10 µM genistein 100% unless noted", "procedure,_shortened": "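First, MCF7-BRCA1-FFLuc cells (2000/well) attach for 2 h; next, compounds are pin-added and incubated 48 h at 37 °C; finally, luciferase reagent is added and luminescence read after 15 min.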"}
{"compound": "CCOc1ccccc1C(=O)N1CCN(c2cccc(Cl)c2)CC1", "activation": "inconclusive: -94.7% [activator]"}
{"compound": "Clc1ccc(-c2ccc(CNCc3ccccn3)o2)cc1", "Potency": "inconclusive: 17.8 µM [activator, single point]"}
{"compound": "O=C(Nc1nnc(-c2ccccc2)s1)c1ccccc1F", "Potency": "inconclusive: 2.82 µM [activator, full curve, poor fit]"}
{"compound": "Cc1ccc(OCC(=O)Nc2ccc(C)c(S(=O)(=O)N3CCCCCC3)c2)c([N+](=O)[O-])n1", "Potency": "inactive"}
{"compound": "CN1CCN(C(=O)CCc2nc(-c3ccc(Cl)cc3)no2)CC1", "Potency": "inconclusive: 22.4 µM [activator, single point]"}
{"compound": "Cc1cccc(N2CCN(C(=O)c3cc4c(=O)n(C)c5ccccc5c4n3C)CC2C)c1", "note": "(stereo not given)", "Potency": "inactive"}
{"compound": "CCOC(=O)c1cccc(NC(=O)CC(c2cc(OC)c(OC)c(OC)c2)N2Cc3ccccc3C2=O)c1", "note": "(stereo not given)", "Potency": "inactive"}
{"compound": "CCn1c(=NC(=O)c2ccc(S(=O)(=O)N3CCCCC3)cc2)sc2cccc(OC)c21", "Potency": "inactive"}
{"compound": "CCCCn1cnc2c(SCc3ccccc3)nc(N)nc21", "Potency": "active: 7.08 µM"}
{"compound": "CCCCCn1cnc2sc(-c3ccccc3)cc2c1=O", "Potency": "active: 5.01 µM"}
{"compound": "CCC(C)NC(=O)Cc1c(C)c2cc3c(cc2oc1=O)OC(C)(C)CC3", "note": "(stereo not given)", "Potency": "inconclusive: 10 µM [activator, partial curve, poor fit]"}
{"compound": "CC(C)Oc1ccc(C(=O)Nc2nc3ccccc3[nH]2)cc1", "activation": "inconclusive: -56.7% [activator]"}
{"compound": "Cc1ccc(C(=O)c2c(C)oc3c2C(=O)C(=O)c2ccccc2-3)cc1", "Potency": "inactive"}
{"compound": "Cc1cc(C(=O)CN2C(=O)NC3(CCCCC3)C2=O)c(C)n1Cc1ccco1", "Potency": "inconclusive: 14.1 µM [activator, partial curve, poor fit]"}
{"compound": "Nc1nc(NCc2cccs2)nn1-c1ccccc1", "Potency": "inconclusive: 11.2 µM [activator, partial curve, poor fit]"}
{"compound": "COc1ccc(C(=O)Nc2ccccc2C(N)=O)cc1", "Potency": "active: 6.31 µM"}
{"compound": "CN(C)c1ccc(-c2ccc3c(=O)c4ccccc4n(C)c3c2)cn1", "Potency": "inconclusive: 2.82 µM [activator, full curve, poor fit]"}
{"compound": "O=C(/C(C=Nc1ccc(Br)cc1)=C(/O)c1ccco1)C(F)(F)F", "Potency": "inconclusive: 0.501 µM [activator, full curve, poor fit]"}
{"compound": "Cc1cc(C)c2c(N)c(C(=O)NCC3CCCCC3)sc2n1", "Potency": "inconclusive: 10 µM [activator, partial curve, poor fit]"}
{"compound": "COc1ccc(NC(=O)CC2SC(=NCC3CCCO3)NC2=O)cc1", "note": "(stereo not given)", "Potency": "inactive"}
{"compound": "O=C(NN=Cc1ccc2c(c1)OCO2)C1CC1", "Potency": "active: 7.08 µM"}
{"compound": "Cc1cccc(NC(=O)CSc2nnc(-c3n[nH]c4ccccc34)o2)c1", "Potency": "active: 12.6 µM"}
{"compound": "O=C(NC1CCCCC1)c1n[nH]c2c1CC(c1ccccc1)CC2", "note": "(stereo not given)", "Potency": "inconclusive: 2.51 µM [activator, full curve, poor fit]"}
{"compound": "O=C(NCCc1ccc(F)cc1)Nc1ccccc1", "Potency": "inconclusive: 7.94 µM [activator, partial curve, poor fit]"}
{"compound": "CCOc1nc(NCc2ccco2)nc(Nc2ccccc2F)n1", "Potency": "inconclusive: 12.6 µM [activator, partial curve, poor fit]"}
{"compound": "COc1ccc(/C(C)=N/Nc2nncc3ccccc23)cc1", "Potency": "inconclusive: 1 µM [activator, full curve, poor fit]"}
{"compound": "CCNC(=O)NC(=O)COc1ccccc1C#N", "Potency": "inconclusive: 8.91 µM [activator, partial curve, poor fit]"}
{"compound": "O=[N+]([O-])c1cc(Cl)ccc1NCCc1ccccn1", "Potency": "inconclusive: 22.4 µM [activator, single point]"}
{"compound": "Fc1ccccc1CSc1nc2ncc(Br)cc2[nH]1", "Potency": "active: 11.2 µM"}
{"compound": "Oc1[nH]c(N=C2N=c3ccccc3=N2)c2ccccc12", "Potency": "inactive"}
{"compound": "CCCCn1cnc2c(SCc3ccccc3F)nc(N)nc21", "Potency": "inconclusive: 10 µM [activator, partial curve, poor fit]"}
{"compound": "Cc1ccc(Nc2nnc(-c3ccc4c(c3)OCO4)o2)c(C)c1", "Potency": "active: 10 µM"}
{"compound": "Cc1nn(CC2CCCCC2)c(N)c1-c1ccccc1", "Potency": "inconclusive: 14.1 µM [activator, partial curve, poor fit]"}
{"compound": "O=C(Nc1nc2ccccc2s1)NC1CCCCC1", "Potency": "inconclusive: 0.794 µM [activator, full curve, poor fit]"}
{"compound": "COc1ccc2oc(=O)c(C(=O)N3CCN(c4ccccc4C)CC3)cc2c1", "Potency": "inconclusive: 20 µM [activator, single point]"}
{"compound": "CC1CCC(NC(=O)c2ccc(NC(=O)CC3SC(N4CCCC4)=NC3=O)cc2)CC1", "note": "(stereo not given)", "Potency": "inconclusive: 1.58 µM [activator, full curve, poor fit]"}
{"compound": "O=C(CCc1ccccc1)n1nc(-c2ccco2)nc1SCc1ccccc1", "Potency": "active: 10 µM"}
{"compound": "Cc1cccc(C(=O)N2c3ccccc3C(=O)OC2c2ccc3c(c2)OCO3)c1", "note": "(stereo not given)", "Potency": "inconclusive: 31.6 µM [activator, single point]"}
{"compound": "N=c1c2c(-c3ccccc3)c(-c3ccccc3)n(Cc3ccco3)c2ncn1Cc1ccccc1", "Potency": "inactive"}
{"compound": "Cc1ccc(CNC(=O)c2cncc(Br)c2)cc1", "Potency": "inconclusive: 35.5 µM [activator, single point]"}
{"compound": "c1ccc2c(CC3=NCCN3)cccc2c1", "Potency": "inactive"}
{"compound": "O=C(c1ccc2nc(Cc3cccc(Cl)c3)oc2c1)N1CCOCC1", "Potency": "inconclusive: 22.4 µM [activator, single point]"}
{"compound": "O=C1COc2cc(S(=O)(=O)CCC(=O)N3CCN(c4cccc(Cl)c4)CC3)c(Cl)cc2N1", "Potency": "inactive"}
{"compound": "Cc1sc2nc(SCC(=O)Nc3ccc(Cl)c(C(=O)O)c3)[nH]c(=O)c2c1C", "Potency": "inconclusive: 2 µM [activator, full curve, poor fit]"}
{"compound": "Cc1nc2cc(F)ccc2n1C1CCN(C(=O)c2ccc(F)cc2F)CC1", "Potency": "inactive"}
{"compound": "CCC(C)N1C(=O)S/C(=C/c2ccc(N3CCOCC3)cc2C)C1=O", "note": "(stereo not given)", "Potency": "active: 8.91 µM"}
{"compound": "CN1OC[C@@H]2CN[C@H](c3ccc(-c4ccc(C#N)cc4)cc3)C[C@@H]21", "Potency": "inconclusive: 1.12 µM [activator, full curve, poor fit]"}
{"compound": "CC(C)Sc1nc(SCC(=O)O)c2c3c(sc2n1)COC(C)(C)C3", "Potency": "inconclusive: 3.55 µM [activator, partial curve, poor fit]"}
{"compound": "COc1ccc(OCCCC(=O)Nc2cccc(C(C)=O)c2)cc1", "Potency": "inactive"}
{"compound": "CCOC(=O)c1c(C)oc2c1c1c(c3ccccc32)OCN(CCCC(=O)O)C1", "Potency": "inconclusive: 35.5 µM [activator, single point]"}
{"compound": "Cc1[nH][nH]c(=O)c1C(c1ccc([N+](=O)[O-])cc1)c1c(C)[nH][nH]c1=O", "Potency": "inactive"}
{"compound": "CCCc1cc(C(=O)NC2CCCC2)no1", "Potency": "inconclusive: 14.1 µM [activator, partial curve, poor fit]"}
{"compound": "Cc1nc(-c2ccc(NC(=O)C3CC3)cc2)cs1", "Potency": "inconclusive: 2.24 µM [activator, full curve, poor fit]"}
{"compound": "O=S(=O)(c1ccc(Br)s1)N1CCC2(CC1)OCCO2", "Potency": "inactive"}
{"compound": "COc1ccc(NC(=O)c2sccc2-n2cccc2)cc1", "Potency": "inactive"}
{"compound": "O=C(/C=C/c1ccc(Br)cc1)NC1CCCCCC1", "Potency": "inconclusive: 25.1 µM [activator, single point]"}
{"compound": "O=C(Nc1ccccn1)c1ccc(NC(=O)c2ccco2)cc1", "Potency": "inconclusive: 35.5 µM [activator, partial curve, poor fit]"}
{"compound": "O=C(Nc1ccccc1)c1ccccc1N=Cc1ccccc1O", "Potency": "inconclusive: 14.1 µM [activator, partial curve, poor fit]"}
{"compound": "Cc1ccc(CNc2ccc(-c3nc(-c4ccco4)no3)cc2[N+](=O)[O-])cc1", "Potency": "inactive"}
{"compound": "COc1ccc(NC(=O)CNC(=O)c2ccco2)cc1", "Potency": "inconclusive: 17.8 µM [activator, single point]"}
{"compound": "NC(=O)C1CCN(c2nc(-c3cccc(N)c3)cs2)CC1", "Potency": "inconclusive: 2.51 µM [activator, full curve, poor fit]"}
{"compound": "COc1cc(C)ccc1OCc1cc(C(=O)N(C)CCCN2CCOCC2)no1", "Potency": "active: 7.94 µM"}
{"compound": "CC(=O)CSc1ncnc2c1cnn2-c1ccccc1", "Potency": "inconclusive: 1.12 µM [activator, full curve, poor fit]"}
{"compound": "CCOC(=O)c1cc(-c2ccc(C)cc2)nn1Cc1ccccc1", "Potency": "active: 10 µM"}
{"compound": "C[C@@H]1CCCCO[C@H](CN(C)Cc2ccc(C(=O)O)cc2)[C@@H](C)CN([C@H](C)CO)C(=O)c2cc(NC(=O)CCC(F)(F)F)ccc2O1", "Potency": "inactive"}
{"compound": "CCCC(=O)Nc1nc2ccc(OCC)cc2s1", "Potency": "active: 6.31 µM"}
{"compound": "CCCNC(=O)c1cccc(COc2ccccc2OC)c1", "activation": "inconclusive: -47.6% [activator]"}
{"compound": "Nc1cccc(CCc2nc3cc4ccccc4cc3[nH]2)c1", "Potency": "inactive"}
{"compound": "COc1c(C)cccc1C(=O)NC(=S)Nc1ccc2c(c1)Cc1ccccc1-2", "Potency": "inactive"}
{"compound": "Cn1c2ccsc2c2ncn(Cc3ccccc3F)c(=O)c21", "Potency": "inactive"}
{"compound": "CC1=C/C(=C(\\c2cc(C)c(O)c(Br)c2)c2ccccc2S(=O)(=O)O)C=C(Br)C1=O", "Potency": "inactive"}
{"compound": "Cn1nnnc1SCc1csc(Nc2ccccc2)n1", "Potency": "active: 12.6 µM"}
{"compound": "CC(=O)Nc1cnc(-c2ccc3c(c2)OCO3)cn1", "Potency": "active: 2.82 µM"}
{"compound": "Cc1nc2nc(NC(=O)c3ccco3)nn2c(C)c1Cl", "Potency": "inconclusive: 35.5 µM [activator, single point]"}
{"compound": "CC1CCCC(C)N1C(=O)c1cc(-c2ccc3c(c2)OCO3)on1", "note": "(stereo not given)", "Potency": "inconclusive: 2 µM [activator, partial curve, poor fit]"}
